For this experiment, the target named is T1, LILRB2, c-terminally biotinylated (BPS Bioscience #100335) (UniProt Q8N423 22-458, limits assumed, C-terminal biotin).
T1 construct: Bought reagent immobilised on streptavidin plates
Put plainly: ELISA, biotinylated LILRB2 on streptavidin plate, fusion protein titrated, APC anti-human IgG detection.

T1 sequence (Q8N423 22-458 limits assumed): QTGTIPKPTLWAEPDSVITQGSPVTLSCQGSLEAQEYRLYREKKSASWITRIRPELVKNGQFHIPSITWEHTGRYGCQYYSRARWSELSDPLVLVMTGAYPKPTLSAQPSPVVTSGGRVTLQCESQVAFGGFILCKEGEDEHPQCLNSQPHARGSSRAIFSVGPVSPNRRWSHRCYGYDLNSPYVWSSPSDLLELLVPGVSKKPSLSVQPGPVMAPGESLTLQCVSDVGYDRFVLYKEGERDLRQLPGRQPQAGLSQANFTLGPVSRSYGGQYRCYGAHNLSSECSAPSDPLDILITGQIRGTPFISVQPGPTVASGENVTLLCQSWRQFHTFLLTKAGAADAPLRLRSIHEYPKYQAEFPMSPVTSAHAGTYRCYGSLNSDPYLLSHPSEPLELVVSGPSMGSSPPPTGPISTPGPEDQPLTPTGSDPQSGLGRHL

B1: wildtype HLA-B57 IgG4 Fc fusion protein (dimer) lacking β2m (Fc fusion)
MHC heavy: GSHSMRYFYTAMSRPGRGEPRFIAVGYVDDTQFVRFDSDAASPRMAPRAPWIEQEGPEYWDGETRNMKASAQTYRENLRIALRYYNQSEAGSHIIQVMYGCDVGPDGRLLRGHDQSAYDGKDYIALNEDLSSWTAADTAAQITQRKWEAARVAEQLRAYLEGLCVEWLRRYLENGKETLQRADPPKTHVTHHPISDHEATLRCWALGFYPAEITLTWQRDGEDQTQDTELVETRPAGDRTFQKWAAVVVPSGEEQRYTCHVQHEGLPKPLTLRWEPSSQSGGGGSGGGGS[human IgG4 Fc with S228P (EU numbers) cut from this listing]
notes: also called β2m-free HLA-B57; non-β2m-associated HLA-B57 fusion protein
Usually EC50 stands for the concentration giving half of the maximal effect. B1 came in with an EC50 of 21 nM.

B2: HLA-B57(A46E/V97R) IgG4 Fc fusion protein (dimer) lacking β2m (Fc fusion)
MHC heavy: GSHSMRYFYTAMSRPGRGEPRFIAVGYVDDTQFVRFDSDAASPRMEPRAPWIEQEGPEYWDGETRNMKASAQTYRENLRIALRYYNQSEAGSHIIQRMYGCDVGPDGRLLRGHDQSAYDGKDYIALNEDLSSWTAADTAAQITQRKWEAARVAEQLRAYLEGLCVEWLRRYLENGKETLQRADPPKTHVTHHPISDHEATLRCWALGFYPAEITLTWQRDGEDQTQDTELVETRPAGDRTFQKWAAVVVPSGEEQRYTCHVQHEGLPKPLTLRWEPSSQSGGGGSGGGGS[human IgG4 Fc with S228P (EU numbers) cut from this listing]
notes: β2m was removed by size exclusion chromatography under acidic conditions; also called non-β2m-associated HLA-B57^(A46E/V97R) fusion protein; variant HLA-B57 fusion protein
In the case of B2, the concentration for a half-maximal effect (EC50) was found to be 8.3 nM.
